These results are taken from PMC6634424.

These are yes or no findings as the source states them, for the method shown. Some entries that bind do so weakly or less than the wild type.

Test [1] concerns the target HopZ1a^wt (Pseudomonas syringae) (UniProt Q6VE93). The experiment in a line: two-hybrid; Y2H: LexA-HopZ1a (wt or C216A) bait, array of 46 NLS-B42-HA-PBL preys, diploid yeast, X-Gal reporter plates, 30°C.
Test [2] deals with T1, ZED1^wt (Arabidopsis thaliana) (UniProt Q8LGB6).
T1 sequence: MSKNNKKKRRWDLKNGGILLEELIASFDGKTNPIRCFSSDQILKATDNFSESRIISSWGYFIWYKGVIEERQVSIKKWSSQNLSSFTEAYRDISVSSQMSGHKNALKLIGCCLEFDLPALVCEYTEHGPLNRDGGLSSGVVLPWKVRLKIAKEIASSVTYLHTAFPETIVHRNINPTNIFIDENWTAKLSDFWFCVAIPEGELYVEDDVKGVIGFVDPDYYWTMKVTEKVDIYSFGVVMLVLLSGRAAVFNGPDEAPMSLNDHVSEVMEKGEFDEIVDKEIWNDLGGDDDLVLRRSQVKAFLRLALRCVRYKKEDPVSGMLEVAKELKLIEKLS
The experiment in a line: two-hybrid; Y3H: LexA-ZED1 (wt or mutant) bait, PBL (wt or mutant) preys, HopZ1a^wt expressed from the yeast ho locus.

For test [3], the target named is T1, ZED1^wt (Arabidopsis thaliana). In words: two-hybrid; Y3H: LexA-ZED1 bait, 46 PBL preys, HopZ1b expressed from the ho locus.
Test [4] addresses T2, ZRK1/RKS1 (Arabidopsis thaliana) (UniProt Q9SVY5).
T2 sequence: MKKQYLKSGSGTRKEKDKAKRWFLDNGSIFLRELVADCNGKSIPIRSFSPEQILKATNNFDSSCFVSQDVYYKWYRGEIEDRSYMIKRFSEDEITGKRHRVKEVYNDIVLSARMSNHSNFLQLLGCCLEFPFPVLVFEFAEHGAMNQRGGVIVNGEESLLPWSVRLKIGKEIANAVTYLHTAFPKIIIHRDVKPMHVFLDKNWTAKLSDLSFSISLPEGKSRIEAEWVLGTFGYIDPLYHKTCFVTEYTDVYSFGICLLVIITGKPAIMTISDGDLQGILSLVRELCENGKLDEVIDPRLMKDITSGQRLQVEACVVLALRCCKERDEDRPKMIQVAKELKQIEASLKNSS
The experiment in a line: two-hybrid; Y2H: LexA-ZRK1/RKS1 bait, 46 PBL preys, no AvrAC; X-Gal reporter plates, 30°C.

On to PBL2 (from UniProt O49839 1-426), for which the binding entry in test [1] is “no binding”.
Turning to PBL3 (from UniProt O49840 1-426), the binding entry in test [1] is listed as “no binding”.
Same read-out and setting: with PBL27 (from UniProt Q1PDV6 1-513) the entry was “no binding”.
Regarding PBL4 (from UniProt Q5PP29 1-412), the binding result in test [1] is “no binding”.
PBL13 (from UniProt F4JZW1 1-494): the binding result in test [1] is recorded as “no binding”.
On to PBL21 (from UniProt Q9LDZ5 1-381), for which the binding result in test [1] is on record as “no binding”.
Still for that read-out and setting: with PBL8 (from UniProt Q8GXZ3 1-410) the entry was “no binding”; with PBL18 (from UniProt Q5XF79 1-387), “no binding”.
PBL15 (from UniProt Q9SY91 1-424): the binding entry in test [1] was “no binding”.

B1: PBL8 (protein, UniProt Q8GXZ3 1-410)
chain: MGNCGTRDEAAVFTPQAQAQQLQKKHSRSVSDLSDPSTPRFRDDSRTPISYAQVIPFTLFELETITKSFRPDYILGEGGFGTVYKGYIDDNLRVGLKSLPVAVKVLNKEGLQGHREWLTEVNFLGQLRHPNLVKLIGYCCEDDHRLLVYEFMLRGSLENHLFRKTTAPLSWSRRMMIALGAAKGLAFLHNAERPVIYRDFKTSNILLDSDYTAKLSDFGLAKAGPQGDETHVSTRVMGTYGYAAPEYVMTGHLTARSDVYSFGVVLLEMLTGRKSVDKTRPSKEQNLVDWARPKLNDKRKLLQIIDPRLENQYSVRAAQKACSLAYYCLSQNPKARPLMSDVVETLEPLQCTGDALIPCATTTAGAAFAMGGVPDYRMHRRFAKNVGPGAICRSPNPNYSPGGPAACRVR
Turning to B1, the binding result in test [2], in test [3] and in test [4] was “binds” throughout.

B2: PBL5 (protein, UniProt Q9LQQ8 1-423)
chain: MGCFGCSKKSSKRSETNKDTVINRKIVGGTTSVAKSDKRDDQTQPSSDSTKVSPYRDVNNEGGVGKEDQLSLDVKGLNLNDQVTGKKAQTFTFQELAEATGNFRSDCFLGEGGFGKVFKGTIEKLDQVVAIKQLDRNGVQGIREFVVEVLTLSLADHPNLVKLIGFCAEGDQRLLVYEYMPQGSLEDHLHVLPSGKKPLDWNTRMKIAAGAARGLEYLHDRMTPPVIYRDLKCSNILLGEDYQPKLSDFGLAKVGPSGDKTHVSTRVMGTYGYCAPDYAMTGQLTFKSDIYSFGVVLLELITGRKAIDNTKTRKDQNLVGWARPLFKDRRNFPKMVDPLLQGQYPVRGLYQALAISAMCVQEQPTMRPVVSDVVLALNFLASSKYDPNSPSSSSGKNPSFHRDRDDEEKRPHLVKETECEGSS
Take B2: the binding result in test [2] and in test [3] was “binds” in each case.

B3: PBL11 (protein, UniProt P43293 1-389)
chain: MGGCFSNRIKTDIASSTWLSSKFLSRDGSKGSSTASFSYMPRTEGEILQNANLKNFSLSELKSATRNFRPDSVVGEGGFGCVFKGWIDESSLAPSKPGTGIVIAVKRLNQEGFQGHREWLAEINYLGQLDHPNLVKLIGYCLEEEHRLLVYEFMTRGSLENHLFRRGTFYQPLSWNTRVRMALGAARGLAFLHNAQPQVIYRDFKASNILLDSNYNAKLSDFGLARDGPMGDNSHVSTRVMGTQGYAAPEYLATGHLSVKSDVYSFGVVLLELLSGRRAIDKNQPVGEHNLVDWARPYLTNKRRLLRVMDPRLQGQYSLTRALKIAVLALDCISIDAKSRPTMNEIVKTMEELHIQKEASKEQQNPQISIDNIINKSPQAVNYPRPSIM
With B3, the binding result in test [2] was “binds weakly”.

B4: PBL12 (protein, UniProt O64842 1-424)
chain: MAVFKKKKTSLTSLFLGCYKAKNASKYEGGEKAVMKIRTCPAFKRLSLSDISDPSSPMSVMDDLSHSFTSQKLRLFTLSELRVITHNFSRSNMLGEGGFGPVYKGFIDDKVKPGIEAQPVAVKALDLHGHQGHREWLAEILFLGQLSNKHLVKLIGFCCEEEQRVLVYEYMPRGSLENQLFRRNSLAMAWGIRMKIALGAAKGLAFLHEAEKPVIYRDFKTSNILLDSDYNAKLSDFGLAKDGPEGEHTHVTTRVMGTQGYAAPEYIMTGHLTTMNDVYSFGVVLLELITGKRSMDNTRTRREQSLVEWARPMLRDQRKLERIIDPRLANQHKTEAAQVAASLAYKCLSQHPKYRPTMCEVVKVLESIQEVDIRKHDGNNNKEGKKFVDINKFRHHRKGKRRVNIAYSDSLVYKESKAKQNDGI
With B4, the binding result in test [2] was “binds weakly”.

B5: PBL9 (protein, UniProt Q06548 1-410)
chain: MGICLSAQVKAESSGASTKYDAKDIGSLGSKASSVSVRPSPRTEGEILQSPNLKSFSFAELKSATRNFRPDSVLGEGGFGCVFKGWIDEKSLTASRPGTGLVIAVKKLNQDGWQGHQEWLAEVNYLGQFSHRHLVKLIGYCLEDEHRLLVYEFMPRGSLENHLFRRGLYFQPLSWKLRLKVALGAAKGLAFLHSSETRVIYRDFKTSNILLDSEYNAKLSDFGLAKDGPIGDKSHVSTRVMGTHGYAAPEYLATGHLTTKSDVYSFGVVLLELLSGRRAVDKNRPSGERNLVEWAKPYLVNKRKIFRVIDNRLQDQYSMEEACKVATLSLRCLTTEIKLRPNMSEVVSHLEHIQSLNAAIGGNMDKTDRRMRRRSDSVVSKKVNAGFARQTAVGSTVVAYPRPSASPLYV
In the case of B5, in test [2], the binding result was “binds”.

B6: PBL22 (protein, UniProt Q9SFX0 1-381)
chain: MRCFSCLNTQTNDMRINIDTLSDLTDYASVATKIDPRGTGSKSGILVNGKVNSPKPGGGARSFTFKELAAATKNFREGNIIGKGGFGSVYKGRLDSGQVVAIKQLNPDGHQGNQEFIVEVCMLSVFHHPNLVTLIGYCTSGAQRLLVYEYMPMGSLEDHLFDLEPDQTPLSWYTRMKIAVGAARGIEYLHCKISPSVIYRDLKSANILLDKEFSVKLSDFGLAKVGPVGNRTHVSTRVMGTYGYCAPEYAMSGRLTIKSDIYSFGVVLLELISGRKAIDLSKPNGEQYLVAWARPYLKDPKKFGLLVDPLLRGKFSKRCLNYAISITEMCLNDEANHRPKIGDVVVAFEYIASQSKSYEDRRTARKSTDSNRLRRETKQSY
For the molecule B6, in test [2], the binding result is listed as “binds”.

B7: PBL36 (protein, UniProt F4J0D2 1-476)
chain: MATKLESFKVVEKLGVEKGEKGKMMSKKKNVKKDGDESESGFWFRFKFIFSCISSRSKVDSSMNATAVIAEPKKVIEKLEGHPAPTKDTGCAESGSSTPLMSGELKYSSKLRIFMFNDLKLATRNFRPESLLGEGGFGCVFKGWIEENGTAPVKPGTGLTVAVKTLNPDGLQGHKEWLAEINFLGNLVHPSLVKLVGYCMEEDQRLLVYEFMPRGSLENHLFRRTLPLPWSVRMKIALGAAKGLAFLHEEAEKPVIYRDFKTSNILLDGEYNAKLSDFGLAKDAPDEKKSHVSTRVMGTYGYAAPEYVMTGHLTTKSDVYSFGVVLLEILTGRRSVDKSRPNGEQNLVEWVRPHLLDKKRFYRLLDPRLEGHYSIKGAQKATQVAAQCLNRDSKARPKMSEVVEALKPLPNLKDFASSSSSFQTMQPVAKNGVRTQGGGFVSRNGPPMRSLSSLNLPQASPYRYARQSPKPKGKEP
Turning to B7, the binding result in test [2] is on record as “binds weakly”.

B8: PBL13 (protein, UniProt F4JZW1 1-494)
chain: MVLCFQDPDNIYSPKKTKKDDGERVITKQKSFLGLSILDISNPSSTTLSEDLSISLAGSDLHVFTQAELRVITQSFSSSNFLGEGGFGPVHKGFIDDKLRPGLKAQPVAVKLLDLDGLQGHREFMTEVMCLGKLKHPNLVKLIGYCCEEAHRLLVYEFMPRGSLESQLFRRCSLPLPWTTRLNIAYEAAKGLQFLHEAEKPIIYRDFKASNILLDSDYTAKLSDFGLAKDGPQGDDTHVSTRVMGTQGYAAPEYIMTGHLTAKSDVYSFGVVLLELLTGRKSVDIARSSRKETLVEWARPMLNDARKLGRIMDPRLEDQYSETGARKAATLAYQCLRYRPKTRPDISTVVSVLQDIKDYKDDIPIGIFTYTVPTKPRREVKETSLQNFDKPRRETKVTSLQNFDKTRREVKDTSLQNFDKTRREVKETSLQNFDKTRREVKETSLQNFDKPRNVSTTDNHQKFRSPAHTARNHRITLRNGYNSPMRNEAGGERY
For the molecule B8, the binding result in test [2] is reported as “binds”.
